Laboratory results as given in ChEMBL document CHEMBL5606458, “ASAP - ZIKV NS2B-NS3 protease fluorescence single point” (2024).
Screen size: about 2,700 compounds; about 160 (5.9%) showed an effect of 50% or more. Some of the results follow.

Target: Nonstructural protein 3 (Zika virus) (UniProt A0A024AXB9)
[1] = PRVABC59, Concentration 15.0 uM, Number of replicates 1.0
[2] = PRVABC59, Concentration 50.0 uM, Number of replicates 1.0

UniProt A0A024AXB9, sequence (A0A024AXB9 as listed by the source): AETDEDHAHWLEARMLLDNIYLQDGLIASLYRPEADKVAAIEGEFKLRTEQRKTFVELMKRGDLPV

O=C(Nc1cc(F)c(Br)c(F)c1)c1cc(Cl)ccc1NS(=O)(=O)c1ccc(Oc2ccccc2Cl)cc1
inhibition [1]: 23.4%

Cc1cc(CO)c2cccc(Nc3nonc3C(N)=O)c2n1
inhibition (PRVABC59, Concentration 49.95 uM, Number of replicates 2.0, Standard deviation 1.4175935710362748 %): 4.15%
inhibition (PRVABC59, Concentration 99.9 uM, Number of replicates 2.0, Standard deviation 2.0633301575187155 %): 4.07%

Cc1cc(Br)cc(C)c1NC(=O)C1CCN(c2ccc(C=O)cc2)CC1
inhibition [2]: 20.8%

O=C(NCc1ccc(S(F)(F)(F)(F)F)cc1)c1cc(Cl)ccc1NS(=O)(=O)c1ccc(Oc2ccccc2Cl)cc1
inhibition [1]: 27.7%

O=Cc1ccc(N2CCC(C(=O)Nc3ncc(C(F)(F)F)cc3Cl)CC2)cc1
inhibition [2]: 20.3%

Cc1cc(CO)c2cccc(Cc3cccc(C(=O)N4CC[C@@H](CO)C4)c3)c2n1
inhibition (PRVABC59, Concentration 49.95 uM, Number of replicates 2.0, Standard deviation 1.594011680945781 %): -6.14%
inhibition (PRVABC59, Concentration 99.9 uM, Number of replicates 2.0, Standard deviation 1.5520642713220405 %): 3.44%

O=Cc1ccc(N2CCC(C(=O)Nc3ncccc3C(F)(F)F)CC2)cc1
inhibition [2]: 22%

COc1cc(CS(=O)(=O)Cc2c(F)cccc2Cl)nc(N2CCNCC2)n1
inhibition (PRVABC59, Concentration 50.0 uM, Number of replicates 2.0, Standard deviation 0.7895335993586137 %): -0.455%
inhibition (PRVABC59, Concentration 100.0 uM, Number of replicates 2.0, Standard deviation 1.3970643047419518 %): 1.93%
inhibition (PRVABC59, Concentration 200.0 uM, Number of replicates 2.0, Standard deviation 1.0663830394580245 %): 7.23%

COc1cc(NC(=O)C2CCN(c3ccc(C=O)cc3)CC2)nc(OC)n1
inhibition [2]: 18.8%

Cc1cc(CO)c2cccc(C[C@H](NC(=O)c3cccc(Cn4cncn4)c3)C(=O)O)c2n1
inhibition (PRVABC59, Concentration 49.95 uM, Number of replicates 2.0, Standard deviation 0.9032659691763744 %): -5.49%
inhibition (PRVABC59, Concentration 99.9 uM, Number of replicates 2.0, Standard deviation 1.6710421272699896 %): -4.41%

CN1CCN(c2ccc(CNCc3cccc(S(N)(=O)=O)c3)cc2)CC1
inhibition (PRVABC59, Concentration 49.5 uM, Number of replicates 2.0, Standard deviation 1.5154223069888513 %): -8.74%
inhibition (PRVABC59, Concentration 99.01 uM, Number of replicates 2.0, Standard deviation 2.659720370827631 %): -6.5%
inhibition (PRVABC59, Concentration 198.0 uM, Number of replicates 2.0, Standard deviation 3.3033882213977632 %): -4.79%

CN(C)Cc1cccc(CNC(=O)c2cc(Cl)ccc2NS(=O)(=O)c2ccc(Oc3ccccc3Cl)cc2)c1
inhibition [1]: -1.32%

Cc1cc(CO)c2cccc(C[C@H](NC(=O)c3nc(-c4ccccc4)oc3C(F)(F)F)C(=O)O)c2n1
inhibition (PRVABC59, Concentration 49.95 uM, Number of replicates 2.0, Standard deviation 1.6710421904902624 %): -1.46%
inhibition (PRVABC59, Concentration 99.9 uM, Number of replicates 2.0, Standard deviation 1.5907517065071604 %): 3.44%

Cc1ccc(S(N)(=O)=O)c(NCc2ccc(N3CCN(C)CC3)cc2)c1
inhibition (PRVABC59, Concentration 49.5 uM, Number of replicates 2.0, Standard deviation 3.8136834235263835 %): -3.3%
inhibition (PRVABC59, Concentration 99.01 uM, Number of replicates 2.0, Standard deviation 3.4522242113831334 %): -1.82%
inhibition (PRVABC59, Concentration 198.0 uM, Number of replicates 2.0, Standard deviation 2.9941184474851785 %): 2.12%

CN(CCO[Si](C)(C)C(C)(C)C)C(=O)C1CCN(c2ccc(C=O)cc2)CC1
inhibition [2]: 22.6%

COc1ccc(Cl)c(NC(=O)C2CCN(c3ccc(C=O)cc3)CC2)c1
inhibition [2]: 23.1%

O=C(Nc1cccc(B(O)O)c1)[C@H]1CCn2ccnc2C1
inhibition (PRVABC59, Concentration 49.5 uM, Number of replicates 2.0, Standard deviation 2.866092203826981 %): 1.78%
inhibition (PRVABC59, Concentration 99.01 uM, Number of replicates 2.0, Standard deviation 0.5770227248937957 %): 4.86%
inhibition (PRVABC59, Concentration 198.0 uM, Number of replicates 2.0, Standard deviation 6.947525620811191 %): 1.81%

COc1cc(F)c(CNC(=O)c2cc(Cl)ccc2NS(=O)(=O)c2ccc(Oc3ccccc3Cl)cc2)c(F)c1
inhibition [1]: 28.3%

CC(C)(NC(=O)C1CCN(c2ccc(C=O)cc2)CC1)c1ccc(Cl)cc1
inhibition (PRVABC59, Concentration 10.0 uM, Number of replicates 1.0): 26.8%

COc1cc(-c2ccccc2C(=O)Nc2cnn(C)c2)ccn1
inhibition (PRVABC59, Concentration 49.5 uM, Number of replicates 2.0, Standard deviation 2.0867366627203316 %): -1.92%
inhibition (PRVABC59, Concentration 99.01 uM, Number of replicates 2.0, Standard deviation 1.9341815083818144 %): -2.85%
inhibition (PRVABC59, Concentration 198.0 uM, Number of replicates 2.0, Standard deviation 1.1019385844771483 %): -1.54%

COc1cccc(CCNC(=O)c2cc(Cl)ccc2NS(=O)(=O)c2ccc(Oc3ccccc3Cl)cc2)c1OC
inhibition [1]: 11.2%
